Measured values reported in PubChem BioAssay (NCATS).
Several values for one entry are separate records, joined by “and”; a condition that tells them apart may be missing. Equal entries are not always repeated. Inconclusive means that the source gave no clear call. Such entries were picked first, then a sample of the others. Where the call is inconclusive, the potency comes from a doubtful curve fit. Activity calls are given as the source filed them. Calls follow the shape of the dose curve; as a rule, active = well fitted cell-killing curve with a large enough effect; inconclusive = small, poorly fitted or top-dose-only effect; inactive = no such curve, though single readings can be large or run the other way.

Test: qHTS of pediatric cancer cell lines to identify multiple opportunities for drug repurposing: Primary screen for MG 63 (6-TG R) cells (AID 1347105); also: nearly all actives have a fitted effect of over 50% in size
Settings: MG 63 (6-TG R) viability, CellTiter-Glo, 48 h; activity change, negative = cytotoxic: at 46 µM (top of the series)
Description: Drug repurposing or repositioning has been offered as a strategy for drug development in oncology programs. This approach has special potential for childhood cancers and other rare or orphan diseases, where the expected return on new drug development has been a disincentive to pharmaceuticals. […] In this project we exploit the poly-pharmacology of drugs to discover new indications via phenotypic screening of a panel of 19 well-characterized cell lines derived from solid tumors seen in children and adolescents. The goal is to identify approved drugs with previously unrecognized anticancer properties that has the potential to reveal new mechanisms and biological processes involved in carcinogenesis or drug resistance. We employed a titration-based paradigm (quantitative high-throughput screening or qHTS), where all compounds were tested at multiple concentrations for their effect on cell viability. Concentration-response curves (CRCs) were derived directly from the primary screen, and both potency and efficacy values were used to identify compounds with robust bioactivity profiles. We screened the NIH Chemical Genomics Center (NCGC) Pharmaceutical Collection (NPC) and Mechanism Interrogation Plate (MIPE) small molecule collections of approved and investigational compounds against these cell lines; and measured metabolically active cells after 48 hours of compound treatment as a proxy for cell viability. […] Assay Submitter: Nathalia J. Martinez, National Center for Advancing Translational Sciences, National Institutes of Health, Rockville, MD, USA; email: natalia.martinez@nih.gov Shen, M et al. Quantitative high-throughput phenotypic screening of pediatric cancer cell lines identifies multiple opportunities for drug repurposing. Oncotarget 2017 Dec 19;9(4):4758-4772. PMID 29435139.
The cells were obtained from University of North Carolina (UNC), Pediatric Preclinical Testing Program (PPT), and Coriell Institute (CI). qHTS cell viability assay: Cells were assayed in growth media at a density of 500-1,000 cells/well. Five microliters of cells were dispensed into 1,536-well, white, solid-bottom, TC-treated plates (Greiner Bio One) using a multidrop dispenser and incubated at 37 degrees C, 5% CO2, under a humidified atmosphere for 5 hours. Twenty-three nanoliters of compounds and controls (neutral control DMSO or positive control bortezomib at final concentration of 2.3 µM) were subsequently transferred by Kalypsys pintool. For primary screens, the MIPE collection was tested at 11-point dilutions (final concentrations range from 0.78 nM to 46 µM) and the NPC collection at 8-point dilutions (final concentrations range from 0.59 nM to 46 µM). Compounds tested in follow-up screens were assayed at 11-point dilutions. Cells were incubated for 48 hours, followed by addition of 3 µL of CellTiter-Glo (Promega). After a 15 min incubation at room temperature, samples were analyzed for luminescence intensity using a ViewLux High-throughput CCD imager equipped with clear filters.
% is scaled to controls: 0 for no effect and ±100 for the full control effect; potency is read from the fitted curve at half-maximal effect; tags tell the direction and shape of the fitted curve.

SMILES	Potency	activity change, negative = cytotoxic
Cc1[nH]nc2ccc(-c3cncc(OC[C@@H](N)Cc4ccccc4)c3)cc12	active: 2.96 µM	
Nc1nc(Cl)nc2c1ncn2[C@@H]1O[C@H](CO)[C@@H](O)[C@H]1F	active: 1.18 µM	
COc1ccc(CC2c3cc(OC)c(OC)cc3CC[N+]2(C)CCC(=O)OCCCCCOC(=O)CC[N+]2(C)CCc3cc(OC)c(OC)cc3C2Cc2ccc(OC)c(OC)c2)cc1OC (stereo not given)		inactive: 0.923% [at 9.22 µM]
Nc1ncnc2c1c(-c1cccc(OCc3ccccc3)c1)cn2C1CC(CN2CCC2)C1 (stereo not given)	inconclusive: 7.43 µM [cytotoxic, full curve]	
C[C@@H]1CC=CC=CC=CC=C[C@@H](O[C@@H]2O[C@H](C)[C@@H](O)[C@H](N)[C@H]2O)C[C@@H]2O[C@](O)(C[C@@H](O)C[C@@H]3O[C@@H]3C=CC(=O)O1)C[C@H](O)[C@@H]2C(=O)O	inconclusive: 9.35 µM [cytotoxic, full curve, poor fit]	
CC(=O)NC(CS)C(=O)O (stereo not given)	inactive	
Cc1ccc(C(=O)Nc2ccc(CN3CCN(C)CC3)c(C(F)(F)F)c2)cc1C#Cc1cnc2cccnn12	active: 7.43 µM	
COc1ccc2cc1Oc1ccc(cc1)C[C@H]1c3cc(c(OC)cc3CCN1C)Oc1c(OC)c(OC)cc3c1[C@H](C2)N(C)CC3	inconclusive: 23.5 µM [cytotoxic, single point]	
CN(C)CCc1c[nH]c2ccc(C[C@H]3COC(=O)N3)cc12	inactive	
CCCCOCCOc1nc(-c2ccc(C(=O)O)c(F)c2)sc1C	inconclusive: 0.187 µM [cytotoxic, full curve]	
CCC(=C(c1ccc(O)cc1)c1ccc(OCCNC)cc1)c1ccccc1	active: 23.5 µM	
Nc1nc(=S)c2[nH]cnc2[nH]1		inconclusive: -59.7% [cytotoxic]
Cc1cnc(Nc2cccc(CN3CCOCC3)c2)nc1Nc1cccc(S(=O)(=O)NC(C)(C)C)c1	active: 7.43 µM	
COc1ccc(CCN(C)CCCC(C#N)(c2ccc(OC)c(OC)c2)C(C)C)cc1OC (stereo not given)	inconclusive: 2.15 µM [cytotoxic, full curve]	
C=C[C@@H]1CN2CCC1C[C@H]2[C@H](O)c1ccnc2ccc(OC)cc12 (stereo not given in full)	inactive	
COc1cc(Nc2c(C#N)cnc3cc(OCCCN4CCN(C)CC4)c(OC)cc23)c(Cl)cc1Cl	inconclusive: 33.5 µM [cytotoxic, single point] and inconclusive: 18.7 µM [cytotoxic, partial curve, poor fit]	
Nc1ncn([C@H]2C[C@H](O)[C@@H](CO)O2)c(=O)n1	inactive	
FC(F)c1nc2ccccc2n1-c1nc(N2CCOCC2)nc(N2CCOCC2)n1	active: 0.187 µM	
CC[C@]1(O)C[C@H]2CN(CCC3=c4ccccc4=N[C]3[C@@](C(=O)OC)(c3cc4c(cc3OC)N(C)[C@H]3[C@@](O)(C(N)=O)[C@H](O)[C@]5(CC)C=CCN6CC[C@]43[C@@H]65)C2)C1	inconclusive: 0.187 µM [cytotoxic, full curve]	
CO[C@H]1/C=C\O[C@@]2(C)Oc3c(C)c(O)c4c(O)c(c(C=NN5CCN(C6CCCC6)CC5)c(O)c4c3C2=O)NC(=O)C(C)=CC=C[C@H](C)[C@H](O)[C@@H](C)[C@@H](O)[C@@H](C)[C@H](OC(C)=O)[C@H]1C	active: 0.59 µM	

SMILES	Potency	activity change, negative = cytotoxic
C=CC(=O)Nc1cccc(Oc2nc(Nc3ccc(N4CCN(C)CC4)cc3OC)ncc2Cl)c1	inconclusive: 11.8 µM [cytotoxic, partial curve, poor fit]	
C=CC(=O)Nc1cc2c(Nc3ccc(F)c(Cl)c3)ncnc2cc1OCCCN1CCOCC1	active: 23.5 µM	
COc1cc2c(c(OC)c1OC)-c1ccc(OC)c(=O)cc1[C@@H](NC(C)=O)CC2	inconclusive: 0.0042 µM [cytotoxic, full curve]	
Cc1cc2c(F)c(Oc3ncnn4cc(OC[C@@H](C)O)c(C)c34)ccc2[nH]1	inconclusive: 5.9 µM [cytotoxic, partial curve]	
c1cncc(CN2CCC(n3ncc4c(N5CCOCC5)nc(-c5ccc6[nH]ccc6c5)nc43)CC2)c1	active: 14.8 µM	
CCC(C(=O)O)C1CCC(C)C(C(C)C(O)C(C)C(=O)C(CC)C2OC3(C=CC(O)[C@@]4(CC[C@](C)(C5CC[C@@](O)(CC)C(C)O5)O4)O3)C(C)CC2C)O1 (stereo not given in full)	active: 18.7 µM	
c1cc(N[C@@H]2CCNC2)nc(-c2cnc3ccc(-c4cn[nH]c4)cn23)c1	inconclusive: 23.5 µM [cytotoxic, single point]	
CCc1c(O)cc(O)c(C(=O)c2ccc(OCCN3CCOCC3)c(OC)c2)c1CC(=O)N(CCOC)CCOC	inconclusive: 9.35 µM [cytotoxic, partial curve]	
NC(N)=Nc1nc(CSCCC(N)=NS(N)(=O)=O)cs1	inactive	
CN(C)CCCC1(c2ccc(F)cc2)OCc2cc(C#N)ccc21 (stereo not given)	inactive	
CN1CCN(c2cc(C(=O)Nc3ccc4c(c3)-c3c(c(C(N)=O)nn3-c3ccc(F)cc3)CC4)c(Cl)cn2)CC1	active: 23.5 µM	
Nc1ccn(C2CO[C@H](CO)O2)c(=O)n1 (stereo not given in full)	inconclusive: 2.66 µM [cytotoxic, full curve, poor fit]	
CC[C@H](C)C(=O)O[C@H]1C[C@H](O)C=C2C=C[C@H](C)[C@H](CC[C@@H](O)C[C@@H](O)CC(=O)O)[C@H]21	inactive	
Cn1cnc(=N)c2[nH]cnc21	active: 1.48 µM	
CC(=O)c1c(C)c2cnc(Nc3ccc(N4CCNCC4)cn3)nc2n(C2CCCC2)c1=O	inconclusive: 37.2 µM [cytotoxic, single point]	
CC(C)CC(=O)Nc1n[nH]c2c1CN(C(=O)C1CCN(C)CC1)C2(C)C	inconclusive: 23.5 µM [cytotoxic, single point]	
NCc1c[nH]c(=S)n1[C@H]1CCc2c(F)cc(F)cc2C1	inconclusive: 23.5 µM [cytotoxic, partial curve]	
CC(C)(Oc1ccc(C2CC2(Cl)Cl)cc1)C(=O)O (stereo not given)	inconclusive: 27 µM [cytotoxic, partial curve, poor fit]	
CCC(C)(C)c1ccc(CC(C)CN2C[C@@H](C)O[C@@H](C)C2)cc1 (stereo not given in full)	inconclusive: 16.8 µM [cytotoxic, partial curve, poor fit]	
Cc1cccc(-c2[nH]c(C(C)(C)C)nc2-c2ccc3c(c2)OCO3)n1	inactive	
